Measurements published in PubChem BioAssay AID1963576 (National Center for Advancing Translational Sciences (NCATS), 2024).
Hit rate of the full screen: of about 46,000 compounds, about 60 (0.1%) were called active. About 3% were inconclusive and are not listed. Calls follow the shape of the dose curve; as a rule, active = well fitted inhibition curve with a large enough effect; inconclusive = small, poorly fitted or top-dose-only effect; inactive = no such curve, though single readings can be large or run the other way. The list shows a part of the results.

test: Primary qHTS assay for Inhibitors of ovarian cancer metastasis using an organotypic tumor microenvironment (TME) model.; also: nearly all actives have a fitted effect of over 65% in size;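 as to activity change, negative = inhibition: plate controls were DMSO wells for no effect and tomatine positive control wells for full effect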; conditions: SKOV3ip1-GFP adhesion/invasion on 3D omental model, fluorescence; series mostly up to 45.8 µM; activity change, negative = inhibition: at the top concentration
In short: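 A 3D layer of primary human omental fibroblasts, mesothelial cells, fibronectin and collagen I, grown 48 hr, received SKOV3ip1-GFP cells in serum-free medium plus compounds at 0.36-46 umol/L. After 2 hr RT and 16 hr 37 C, fixed adherent GFP cells were counted; normalized to DMSO and tomatine.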

Activity change, negative = inhibition, inactive:
CN1CCN(C(c2cccc(Br)c2)c2sc3nc(-c4ccco4)nn3c2O)CC1 (configuration not stated) 2.13%
COc1cccc(OC)c1C(=O)Nc1cccc(-c2nc3cc(C)cc(C)c3o2)c1 -15.2%
O=C(CC12CC3CC(CC(C3)C1)C2)Nc1cccc2nc(NCCNCCO)ccc12 16.5%
COc1ccc(NC(=O)c2noc3c2CSc2ccccc2-3)cc1Cl -22.7%
CCc1cccc(-n2nnc(-c3nc(-c4cccs4)no3)c2N)c1 -2.46%
CC(=O)N1CCCc2cc(S(=O)(=O)N3CCN(c4ccc(F)cc4)CC3)ccc21 -5.17%
CN[C@H]1CCc2cc(OC)c(OC)c(OC)c2-c2ccc(OC)c(=O)cc21 0.91%
COc1ccc(S(=O)(=O)N(C)Cc2nc(-c3cccc(C)c3)no2)cc1 1.01%
CCc1ccc(NC(=O)N(Cc2ccc(C)cc2)Cc2cccn2-c2nnc(N3CCCC3=O)s2)cc1 -12.4%
COc1cccc(CNC(=O)C(NS(=O)(=O)c2ccc3nc(C)sc3c2)C(C)C)c1 (configuration not stated) 9.23%
Cc1ccc(NC(=O)C2CCCN(c3nnc(-n4c(C)ccc4C)s3)C2)cc1Cl (configuration not stated) -6.9%
Cc1ccc(NC(=O)N2CCC(CN3CCC(C)CC3)CC2)cc1F 1.19%
CCCc1cc(=O)n2[nH]c(-c3ccc(C)cc3)nc2n1 -4.83%
CCOC(=O)c1ccc(NC(=O)c2cc(=O)c3cc(CC)ccc3o2)cc1 -3.88%
CCCCc1ccc(NC(=O)COc2cccc3c(=O)n(C)ccc23)cc1 -3.3%
Cc1ccccc1CN1c2ccccc2-c2nc(SCC(=O)NCCc3ccccc3)ncc2S1(=O)=O -7.54%
CCS(=O)(=O)NCC(c1ccco1)N1CCN(c2ccc(OC)cc2)CC1 (configuration not stated) -0.137%
Cc1ccc(C(CC(=O)Nc2cc(C)cc(C)c2)N2Cc3ccccc3C2=O)cc1 (configuration not stated) -1.91%
Cc1nc2ccc(S(=O)(=O)NC(C(=O)NCc3ccccc3Cl)C(C)C)cc2s1 (configuration not stated) 9.23%
CC1CCN(S(=O)(=O)c2ccc3c(c2)N(CC(=O)NCc2ccccc2Cl)C(=O)CS3)CC1 -3.13%
NC(=O)CSc1nc2ccc(NC(=O)COc3ccccc3)cc2s1 -6.93%
COc1ccc(OC)c(CNS(=O)(=O)c2c(C(=O)N3CCC(C)CC3)c(C)n(C)c2C)c1 2.61%
Cc1ccc2c(CC(=O)N3CCN(c4cccc(Cl)c4)CC3)coc2c1 -23.8%
O=C(Nc1cccc(C(F)(F)F)c1)C1CCCN(S(=O)(=O)c2cccc3nsnc23)C1 (configuration not stated) -16.6%
CCCCNc1ccc(-c2nc(-c3ccccc3)no2)cc1[N+](=O)[O-] -6.48%
CCOc1ccccc1NC(=O)CSc1c(C)cnc2c1c(=O)n(C)c(=O)n2C -23.3%
COc1cc(Nc2nc(SCc3ccccc3F)nc3ccccc23)cc(OC)c1 -3.88%
CCOc1ccc(C(=O)NCCc2sc(-c3ccc(C)cc3)nc2C)cc1 0.658%
COc1ccccc1N1CCN(CCCNC(=O)c2cnn(-c3ccccc3Cl)c2C2CCN(C(=O)OC(C)(C)C)CC2)CC1 -5.22%
CC(C)CCN1C(=O)N(c2ccccc2)C(=O)C1CC(=O)Nc1ccc(Cl)cc1 (configuration not stated) 2.05%
CCOCCCNC(=O)C(c1ccc(OC)cc1)N(Cc1cccs1)C(=O)c1ccccc1O (configuration not stated) 1.06%
CC1=C(C(=O)Nc2cccc(C)c2C)C2(CCCCC2)OC1=O 12.5%
COc1ccc(-c2cc3c(=O)n(CC(=O)Nc4ccccc4C(F)(F)F)ccn3n2)cc1OC -8.6%
CCOc1cccc2sc(N(Cc3cccnc3)C(=O)c3ccco3)nc12 8.33%
COc1cc(OC)c(NC(=O)Nc2nnc(N(C)C3CCCCC3)s2)cc1Cl -8.27%
COc1ccc(C(c2c(C)n(C)n(-c3ccccc3)c2=O)c2c(C)n(C)n(-c3ccccc3)c2=O)cc1O 20.2%
CC1(C(=O)Nc2cccc(C(F)(F)F)c2)Cc2ccccc2C(=O)O1 (configuration not stated) 9.54%
Cc1c(C(=O)Nc2ccc(Br)cc2F)oc2ccc(S(=O)(=O)N3CCCCC3)cc12 1.66%
CC(=O)c1ccc(NC(=O)CN(C)S(=O)(=O)c2cc3c(cc2C)NC(=O)CO3)cc1 -0.721%
CC1CCN(CC(=O)N2CCCc3c2c(=O)oc2ccc(OCc4ccccc4)cc32)CC1 6.58%
CCN1CCC(N(Cc2ccc(F)cc2)C(=O)Nc2cc(C)ccc2C)CC1 -14%
CCOc1ccccc1CNc1ncnc2onc(-c3ccc(F)cc3)c12 3.45%
O=C(CN1C(=O)C2CCCCN2c2ccc(C(=O)N3CCCC3)cc21)NCc1ccc(F)cc1 (configuration not stated) 8.07%
Cc1nc(N2CCOCC2)c2c(C(=O)N3CCN(c4cc(Cl)ccc4C)CC3)c(C)oc2n1 -1.12%
CCOc1c(CC2C(=O)Nc3ccc(Br)cc32)cccc1OC (configuration not stated) -24.1%
COC(=O)c1ccc(C2CC(=O)Nc3c2c(C)nn3-c2nc(C)cc(C)n2)cc1 (configuration not stated) 0.622%
CC1CCCCN1C(=O)CSc1nc2ccccc2nc1Cc1ccccc1 (configuration not stated) -24.1%
COc1ccc(-n2cc(C(=O)NCCc3ccc(C)cc3)c3ccccc3c2=O)cc1 0.866%
CCOC(=O)c1c(S(=O)(=O)N2CCC(C(=O)Nc3ccc(C)cn3)CC2)c(C)n(C)c1C 7.04%
COc1cc(NC(=O)Cn2c(=O)n(Cc3ccccc3)c(=O)c3oc4ccccc4c32)cc(OC)c1 4.08%
COc1ccc(CNC(=O)c2ccc3c(c2)N=C(C)c2c(C)ccc(C)c2S3)cc1 -1.31%
CCN(CC)c1ccc(NC(=O)CN2CCN(S(=O)(=O)c3ccc(C(C)C)cc3)CC2)cc1 4.71%
O=C(Cn1ccc2cc(S(=O)(=O)N3CCCC3)ccc21)NCc1ccc(Cl)cc1 1.72%
Cc1cc(C)cc(NC(=O)CC(C)n2nc(C)cc2C)c1 (configuration not stated) -29.4%
Cc1ccc(CNC(=O)c2oc3ccc(S(=O)(=O)N4CCCC(C)C4)cc3c2C)cc1 (configuration not stated) -1.62%
O=c1[nH]c(=O)n([C@H]2C[C@@H](O)[C@@H](CO)O2)cc1F 0.352%
CCOc1ccc(CNC(=O)Cn2nc(C)c3nn(-c4ccc(Cl)cc4)c(C)c3c2=O)cc1 -13.7%
CNC(=O)c1ccc(Nc2cc(Nc3ccccc3S(=O)(=O)C(C)C)c3cc[nH]c3n2)nc1 -1.56%
COc1ccc(CCNS(=O)(=O)c2ccc3c(c2)c(=O)n(C)c(=O)n3C)cc1OC -1.45%
CCc1ccc(NC(=O)CC2C(=O)N(c3cccc(C)c3)C(=O)N2Cc2cccc(OC)c2)cc1 (configuration not stated) -6.97%
Cc1cc(Cl)ccc1OCCCC(=O)NO 6.35%

outcome, inactive:
O=C(Cn1nc(Cc2cccnc2)c2ccccc2c1=O)Nc1cccc(C(F)(F)F)c1
Clc1ccc2nc(-c3ccc(Br)o3)c(Nc3ccc4c(c3)OCCO4)n2c1
CCC(=O)OCCCNc1nc(-c2ccc(Cl)cc2)nc2ccccc12
CCc1ccc(NC(=O)CN2C(=O)C(c3ccccc3)=NC23CCCCCC3)cc1
COc1ccc(-c2cc(C(F)(F)F)nc(SCC(=O)NCCc3ccc(OC)c(OC)c3)n2)cc1
CCOC(=O)c1c(C)c(-c2ccccc2)n(CC(=O)NCCc2ccc(C)cc2)c1C
Cc1ccc2nc(CSc3nnc(NC(=O)COc4ccccc4)s3)cc(=O)n2c1
CCN(CC)c1ccc(-n2nc3cc(C)c(NC(=O)c4ccccc4F)cc3n2)cc1
Cc1cccc(NC(=O)CSc2nnc(C)c(=O)[nH]2)c1
Cc1cccc(NC(c2cccc(F)c2)c2ccc3ccc(C)nc3c2O)n1 (configuration not stated)
c1ccc(-c2cc(-c3ccccc3)c3c(n2)-c2ccccc2OC3)cc1
CC1CCC(NC(=O)c2ccc3c(c2)N(Cc2ccccc2F)C(=O)c2ccccc2S3)CC1 (configuration not stated)
CCCn1c(=N)c(C(=O)NC2CCCC2)cc2c(=O)n3cc(C)ccc3nc21
Cc1cc(C)cc(NC(=O)Cn2nnc(C(=O)NCCc3ccccc3)c2N)c1
CSc1ncc(Cl)c(C(=O)NCc2ccc(C)cc2)n1
COc1ccc(C2C(=O)N(C3CCC(C)CC3)CC(=O)N2Cc2ccc(C)cc2)cc1OC (configuration not stated)
Cc1ccc(CCNC(=O)c2ccc(CS(=O)(=O)c3ccc(Br)cc3)o2)cc1
Cc1ccc(Sc2ccc(N3CCCC(C(=O)Nc4ccc(Cl)cc4)C3)nn2)cc1 (configuration not stated)
CC(C)NC(=O)CSc1nc2ccccc2nc1N1CCCCC1
COc1ccc(CCNC(=O)c2cnc3sc(N4CCCCCC4)nn3c2=O)cc1OC
CC1=C(C(=O)Nc2c(C)cc(C)cc2C)C2(CCN(C(C)C)CC2)OC1=O
Cc1ccc(N2CC(NC(=O)Cc3cccs3)CC2=O)cc1 (configuration not stated)
CCCNC(=O)CN1C(=O)COc2ccc(S(=O)(=O)N3CCCC3)cc21
COc1ccc(CNC(=O)C2CCCCN2S(=O)(=O)c2ccc(F)cc2)cc1 (configuration not stated)
CCOc1ccc(N2C(=O)c3[nH]nc(-c4ccccc4)c3C2c2ccc(O)c(OC)c2)cc1 (configuration not stated)
O=C(Nc1ccc(S(=O)(=O)Nc2ncccn2)cc1)c1cccc(Cl)c1
CCn1c(SC)nc2c([nH]c3ccccc32)c1=O
O=C(Nc1ccc(F)cc1)C1CCN(c2nc3ccccc3nc2C(F)(F)F)CC1
COc1ccc(-c2noc(CC(=O)N(C)c3ccccc3F)n2)cc1
Cc1cc(-c2ccc(S(=O)(=O)Nc3ccccc3C)cc2)on1
COc1ccc(NC(=O)C2=C(C)Nc3nc(SCc4ccc(C)cc4C)nn3C2c2cccc(OC)c2OC)cc1 (configuration not stated)
Cc1oc2ncnc(N3CCCCC3)c2c1C(=O)NCC1CCN(Cc2ccccc2F)CC1
COc1ccccc1NC(=O)c1sc2nc(-c3cc4cc(Cl)ccc4oc3=O)[nH]c(=O)c2c1C
COc1cc(-c2ccno2)ccc1S(=O)(=O)N1CCN(c2cccc(Cl)c2)CC1
Cc1[nH]c(=O)[nH]c(=O)c1S(=O)(=O)Nc1cccc(Cl)c1C
COc1ccc(OC)c(NC(=O)Cn2nc3c(cc2=O)CCCC3)c1
